Results from patent US20100316644A1 (ACCELERON PHARMA, published 2010).

How the values were obtained:
Assay in all cases: Biacore, steady-state affinity fit
Activin B = biological target: T1, Activin B (UniProt P09529 293-407)
T1 sequence (looked up): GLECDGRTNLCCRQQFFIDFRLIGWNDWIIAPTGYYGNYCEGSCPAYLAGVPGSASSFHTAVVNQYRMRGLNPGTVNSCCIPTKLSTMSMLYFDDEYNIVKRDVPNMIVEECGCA
Text: (§1) Kd values were obtained by steady-state affinity fit due to very rapid association and dissociation of the complex, which prevented accurate determination of kₒₙ and koff.

[1] = biological target: T2, Growth and Differentiation Factor-11 (GDF11) (UniProt O95390 299-407)
T2 construct: also called BMP11
T2 sequence (looked up): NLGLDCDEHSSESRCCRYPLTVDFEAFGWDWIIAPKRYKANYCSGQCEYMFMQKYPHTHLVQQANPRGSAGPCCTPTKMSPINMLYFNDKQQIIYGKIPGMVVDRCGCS
Text: as §1

Activin A = biological target: T3, Activin A (UniProt P08476 311-426)
T3 sequence (looked up): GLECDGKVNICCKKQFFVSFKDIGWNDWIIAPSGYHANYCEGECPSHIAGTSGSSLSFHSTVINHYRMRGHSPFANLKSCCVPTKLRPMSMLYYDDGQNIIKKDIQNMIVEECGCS
Text: as §1

B1: ActRIIB(25-131)-hFc (Fc fusion)
chain: ETRECIYYNANWELERTNQSGLERCEGEQDKRLHCYASWRNSSGTIELVKKGCWLDDFNCYDRQECVATEENPQVYFCCCEGNFCNERFTHLPEAGGPEVTYEPPPTG[sequence of human IgG1 Fc and a few adjoining residues not given]
notes: also called truncated ActRIIB-Fc fusion protein
- Kd (Activin B): 0.012 nM
- Kd [1]: 0.031 nM
- Kd (Activin A): 0.018 nM
